# According to PubChem BioAssay AID485294 (National Center for Advancing Translational Sciences (NCATS), 2010):
# Hit rate of the full screen: of about 370,000 compounds, about 150 (0.041%) were called active. The shares of active, inactive and inconclusive entries below differ from those in the screen. The call rests on the fitted dose curve; in most records, active means well fitted inhibition curve with a large enough effect; inconclusive means small, poorly fitted or top-dose-only effect; inactive means flat fitted curve, though single readings scatter. No potency is given beside an inconclusive call; the fits are too rough.
# Target: Beta-lactamase (Escherichia coli (strain K12)) (UniProt P00811)
# Experiment: qHTS Inhibitors of AmpC Beta-Lactamase (assay with detergent); further: nearly all actives have a fitted effect of over 25% in size;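 on activity change, negative = inhibition: 0% = no-compound wells and -100% = no-enzyme wells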
# Details: AmpC hydrolysis of nitrocefin, absorbance 480 nm, 0.01% Triton; activity change, negative = inhibition: at 114 µM (top of the series)
# Outline: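 AmpC (5.3 nM in the dispensed reagent) in 20 mM phosphate pH 7.0 with 0.01% (detergent screen) or 0.0001% Triton X-100 was preincubated with compounds for 15 min at room temperature. Nitrocefin was then added from an 800 uM solution, and hydrolysis was followed at 480 nm.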
# Potency means the concentration at half of the fitted maximal effect; tags describe the fitted curve by direction and shape.
# UniProt P00811, sequence (P00811 whole entry, looked up): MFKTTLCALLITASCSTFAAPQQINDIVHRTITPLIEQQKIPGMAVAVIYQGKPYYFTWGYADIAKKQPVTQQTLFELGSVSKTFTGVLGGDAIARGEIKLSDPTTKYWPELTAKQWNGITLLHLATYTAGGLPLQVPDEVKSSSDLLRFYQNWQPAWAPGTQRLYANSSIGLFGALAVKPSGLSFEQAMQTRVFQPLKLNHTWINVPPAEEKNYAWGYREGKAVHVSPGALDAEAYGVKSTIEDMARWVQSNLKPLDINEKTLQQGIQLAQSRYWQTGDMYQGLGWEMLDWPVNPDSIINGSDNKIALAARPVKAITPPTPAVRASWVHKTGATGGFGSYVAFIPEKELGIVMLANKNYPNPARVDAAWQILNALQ
SMILES,Potency,"activity change, negative = inhibition"
NCCCC(=O)N1c2ccccc2Sc2ccccc21,"inconclusive [inhibitor, full curve, poor fit]",–
O=C(CN1CCN(C(=O)c2ccco2)CC1)Nc1ccccc1-c1ccccc1,–,inactive: -8.74%
CC(C)[C@@H]1N[C@]2(C(=O)Nc3ccccc32)[C@@H]2C(=O)N(c3cccc(C(F)(F)F)c3)C(=O)[C@@H]21,"inconclusive [inhibitor, partial curve, poor fit]",–
O=C(CN1CCN(Cc2ccccc2)CC1)NCCc1ccccc1,"inconclusive [inhibitor, partial curve, poor fit]",–
O=C(O)CCCNC1=NCCC1,"inconclusive [inhibitor, partial curve]",–
Cn1c(=O)c2c(nc(Oc3ccccc3)n2Cc2c(Cl)cccc2Cl)n(C)c1=O,–,inactive: -4.88%
COc1cccc(NC(=O)[C@@H]2CCCN2C(=O)C2CCN(S(=O)(=O)c3ccc(C)cc3)CC2)c1,"inconclusive [inhibitor, full curve]",–
Cc1ccc(C(=O)c2cc([N+](=O)[O-])ccc2N2CCCCC2)cc1,"inconclusive [inhibitor, partial curve]",–
Cn1c(SCC(=O)NCc2ccc3c(c2)OCO3)nnc1C1COc2ccccc2O1 (stereo not given),"inconclusive [inhibitor, full curve]",–
CCN(CC)c1nc(C(F)(F)F)nc2c1nnn2Cc1ccccc1,"inconclusive [inhibitor, full curve, poor fit]",–
CC12CN3CC(C)(CN(C1)C3c1ccc3ccccc3c1O)C2=O (stereo not given),"inconclusive [inhibitor, partial curve]",–
CC(C)CNc1nc(=S)nc(N(C)C)[nH]1,"inconclusive [inhibitor, partial curve, poor fit]",–
CC1(C)CC(=O)CC(C)(C)N1OC(=O)c1ccco1,"inconclusive [inhibitor, full curve, poor fit]",–
Cc1cc(Cl)ccc1C(=O)C1CCCN(C(=O)/C=C/c2cnn(C)c2)C1 (stereo not given),–,inactive: -1.61%
Cc1c(NC(=O)C(C)(C)Oc2ccc(Cl)cc2)cccc1-c1nc2ncccc2o1,–,inactive: 0.974%
CCNC(=O)NS(=O)(=O)c1cnccc1Nc1cccc(Cl)c1,"inconclusive [inhibitor, full curve, poor fit]",–
O=C(CSc1nnc(CCCN2C(=O)c3cccc4cccc(c34)C2=O)n1-c1ccccc1)NCCCO,"inconclusive [inhibitor, single point]",–
COc1cccc(NC(=O)Cc2ccc(C)cc2)c1,"inconclusive [inhibitor, full curve, poor fit]",–
O=C(O)CCS(=O)(=O)Cc1cccc(Cl)c1,"inconclusive [inhibitor, full curve, poor fit]",–
Cc1c(Cl)cccc1NC(=O)Nc1nnc(N(C)Cc2ccccc2)s1,–,inactive: 0.679%
CCCC/C(C)=N/NC(=O)Nc1ccccc1,"inconclusive [inhibitor, partial curve, poor fit]",–
C[C@@H](C(=O)NCc1ccccn1)[C@H]1C[C@]1(C)[C@H](NC(=O)OCc1ccccc1)c1ccccc1,"inconclusive [inhibitor, full curve, poor fit]",–

SMILES,Potency,"activity change, negative = inhibition"
COc1cc(C(=S)N2CCOCC2)cc(OC)c1OC(=O)c1ccc(C)cc1,"inconclusive [inhibitor, single point]",–
COc1cc(OC)c(OC)cc1/C=N/NC(=S)NCCN1CCOCC1,–,inactive: 9.08%
COC(=O)c1sccc1S(=O)(=O)N(CC(=O)Nc1c(C)cccc1C)c1ccc(C)c(C)c1,–,inactive: 21%
Cc1ccccc1OCCC(=O)OCC(=O)NCCNC(=O)COC(=O)CCOc1ccccc1C,"inconclusive [inhibitor, full curve, poor fit]",–
COc1ccc(-c2sc(Nc3ccccc3)n[n+]2C)c(C)c1C,"inconclusive [inhibitor, partial curve]",–
CCN(CC(=O)NCc1ccc(Cl)cc1)C(=O)c1cc(S(=O)(=O)NCc2ccccc2)ccc1C,"inconclusive [inhibitor, full curve, poor fit]",–
Cn1c(=O)[nH]c(=O)c2c1nc(N1CCN(CCO)CC1)n2Cc1ccccc1,"inconclusive [inhibitor, full curve]",–
O=[N+]([O-])c1ccc(N2CCN(C(=S)Nc3cccc(F)c3)CC2)cc1,"inconclusive [inhibitor, partial curve]",–
CC(C)c1ccc(NC2CCCN(C(=O)c3ccc(N4CCOCC4)cc3)C2)cc1 (stereo not given),–,inactive: 1.11%
COc1ccc(C(=O)N/C(=C\c2cn(C)c3ccccc23)C(=O)NCCCN2CCOCC2)cc1OC,"inconclusive [inhibitor, full curve]",–
CC(=O)N1CCN(C(=O)c2ccc(NS(=O)(=O)c3ccc4c(c3)OCCO4)cc2)CC1,"inconclusive [inhibitor, full curve, poor fit]",–
CCOc1ccc(-c2nnn(CC(=O)NCc3ccc(OC)cc3)n2)cc1OCC,"inconclusive [inhibitor, partial curve, poor fit]",–
O=C(c1cnn(C(=O)c2ccc(O)cc2)c1)c1ccccc1O,"inconclusive [inhibitor, full curve]",–
Cc1cc(Nc2ccccc2)n(-c2ccc(C(=O)O)cc2)n1,"inconclusive [inhibitor, partial curve]",–
CCOc1ccc(CCNC(=O)c2ccc(CS(=O)Cc3cccc(Cl)c3)o2)cc1 (stereo not given),"inconclusive [inhibitor, full curve]",–
Cn1ncc(Cl)c1C(=O)Nc1ccncc1,–,inactive: -12.6%
COC(=O)c1c(C)[nH]c(C(=O)C(C)OC(=O)c2c(C)noc2C)c1C (stereo not given),"inconclusive [inhibitor, single point]",–
CC(Oc1ccc(F)cc1)C(=O)Nc1ccc(N2CCOCC2)cc1N1CCOCC1 (stereo not given),"inconclusive [inhibitor, full curve, poor fit]",–
O=C(NCCN1CCN(c2ccccc2)CC1)C1CCN(S(=O)(=O)c2cccc3nsnc23)CC1,"inconclusive [inhibitor, partial curve]",–
CS(=O)(=O)c1ccc2sc(NC(=O)c3cc4ccccc4o3)nc2c1,–,inactive: 0.951%
CCCCc1nc2ccccc2c(=O)n1NC(=O)c1c(O)c2cccc3c2n(c1=O)CCC3,"inconclusive [inhibitor, full curve, poor fit]",–
CN(C)Cc1c(O)ccc2c(=O)c(-c3ccccc3Cl)coc12,"inconclusive [inhibitor, partial curve, poor fit]",–

SMILES,Potency,"activity change, negative = inhibition"
C=CCNC(=O)c1nn2cccnc2c1Cl,"inconclusive [inhibitor, single point]",–
Cc1cccc(N2CC(C(=O)Nc3cccc(S(=O)(=O)N4CCCCC4)c3)CC2=O)c1C (stereo not given),–,inactive: -0.168%
CCOc1ccc2[nH]c(=O)c(C(c3nnnn3C3CCCCC3)N3CCN(CC)CC3)cc2c1 (stereo not given),"inconclusive [inhibitor, full curve, poor fit]",–
CCOC(=O)CC(=O)Nc1nc2ccccc2s1,–,inactive: -11.3%
COc1cc(Br)c(CC(=O)NC2CC2)cc1OC,"inconclusive [inhibitor, full curve, poor fit]",–
CCOC(=O)C(C(=O)OCC)C(Nc1ccccc1)c1ccccc1 (stereo not given),"inconclusive [inhibitor, partial curve, poor fit]",–
CC(C)N1CCc2c(sc(NC(=O)c3ccc(S(=O)(=O)N4CCc5ccccc54)cc3)c2C(N)=O)C1,–,inactive: 4.77%
O=C(CN1C(=O)CSCC1=O)NCc1ccc(F)cc1,"inconclusive [inhibitor, full curve, poor fit]",–
Cc1ccc(S(=O)(=O)Nc2ccc3c(c2)nc(CN2CCCC2)n3C)cc1,"inconclusive [inhibitor, full curve, poor fit]",–
CCOc1ccc(CCNC(=O)CCc2c(C)nc3cc(-c4ccccc4OC)nn3c2C)cc1,"inconclusive [inhibitor, single point]",–
Cc1cc(Nc2ccccc2)c2c([N+](=O)[O-])c(C)cc(C)c2n1,"inconclusive [inhibitor, full curve, poor fit]",–
O=C(NC(=S)NC1CCS(=O)(=O)C1)c1ccccc1 (stereo not given),–,inactive: 5.82%
COc1ccc(C)cc1-n1nnnc1SCc1cn2ccsc2n1,"inconclusive [inhibitor, full curve, poor fit]",–
Cn1ncc([N+](=O)[O-])c1C(=O)Nc1cccc(Cl)c1,"inconclusive [inhibitor, full curve, poor fit]",–
CCOC(=O)Cc1csc(NC(=O)Cc2ccc(Cl)cc2)n1,–,inactive: 8.4%
CSc1nc2c(c(=O)[nH]c(=O)n2C)n1Cc1ccc(Cl)cc1,"inconclusive [inhibitor, full curve, poor fit]",–
Cc1ccc(/C=C/C(=O)N2CCN(S(=O)(=O)c3ccc(C)c(C)c3)CC2)o1,–,inactive: -9.19%
CCOC(=O)c1nnn(-c2nonc2NC(C)=O)c1C,"inconclusive [inhibitor, full curve, poor fit]",–
CCC(=O)Nc1c2c(nn1-c1cccc(Cl)c1)CSC2,"inconclusive [inhibitor, full curve, poor fit]",–
COc1ccccc1N1CCN(CCC(=O)Nc2ccc3c(c2)OCO3)CC1,"inconclusive [inhibitor, full curve]",–
O=C(Nc1cccc(S(=O)(=O)N2CCOCC2)c1)c1cn(-c2ccccc2)nc1-c1ccc(F)cc1,–,inactive: -10.5%
